Reference: PubChem BioAssay AID1345082 (National Center for Advancing Translational Sciences (NCATS), 2018)
About 4,000 (4.3%) of roughly 94,000 compounds were called active. The inconclusive results got no clear call from the source; some entries with a clear call stand among them for comparison. Calls come from the whole dose curve; as a rule, active = well fitted inhibition curve with a large enough effect; inconclusive = small, poorly fitted or top-dose-only effect; inactive = no such curve, though single readings can be large or run the other way. Where the call is inconclusive, the potency comes from a doubtful curve fit.

Experiment: Cytotoxic Profiling in NIH 3T3 Cell Line of Diverse Libraries Using Quantitative High-Throughput Screening; note: nearly all actives have a fitted effect of over 55% in size
Details: NIH 3T3 viability, CellTiter-Glo ATP luminescence, 48-72 h; activity change, negative = cytotoxicity: at 96.7 µM (top of the series) unless noted; series mostly up to 96.7 µM
How it was run: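 Luminescent ATP readout (CellTiter-Glo, 10 min RT) after 48 or 72 hr compound exposure of NIH 3T3 cells seeded at 400 cells/well in 1536-well format; quantitative HTS.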
% is set by controls: 0 for no effect and ±100 for the full control effect; potency is the fitted concentration of half-maximal effect; tags give direction and shape of the fitted curve.

| SMILES | activity change, negative = cytotoxicity | Potency | outcome |
| --- | --- | --- | --- |
| COc1ccc(-c2cc(N3CCCN(C(=O)C4CCCC4)CC3)n[nH]2)cc1 | inactive: -18.2% | – | – |
| Cc1ccc(S(=O)(=O)N2CCCC(CCC(=O)NC3CCCCC3)C2)cc1 (configuration not stated) | – | inconclusive: 44.7 µM [inhibitor, partial curve, poor fit] | – |
| COCc1cn([C@H]2CO[C@H]3[C@@H]2OC[C@H]3OC(=O)Nc2cccc(C(F)(F)F)c2)nn1 | – | inconclusive: 112 µM [inhibitor, partial curve, poor fit] | – |
| COc1ccccc1N1CCCc2ncc(C(=O)Nc3cccc(C(F)(F)F)c3)cc21 | – | inconclusive: 100 µM [inhibitor, single point] | – |
| COc1ccc(Cl)cc1-c1ccc2c(c1)C(=O)N1CCN(C(=O)C3CCCC3)C[C@H]1C(=O)N2 | – | inconclusive: 56.2 µM [inhibitor, partial curve, poor fit] | – |
| CCOC(=O)[C@@H]1CN(C(=O)NCc2ccccc2)[C@H]2c3cccc(F)c3O[C@@H]12 | – | inconclusive: 50.1 µM [inhibitor, partial curve, poor fit] | – |
| O=c1cc(-c2cnccn2)oc2c(Nc3cccc(OC(F)(F)F)c3)nccc12 | – | inconclusive: 39.8 µM [inhibitor, partial curve, poor fit] | – |
| O=C(c1cc2cc(F)ccc2[nH]1)N1CCC(CO)(CCCc2ccccc2)CC1 | – | inconclusive: 50.1 µM [inhibitor, partial curve, poor fit] | – |
| COc1cncc(NC(=O)C2=NO[C@@H]3CN(Cc4ccccc4)C[C@H]23)c1 | – | inconclusive: 79.4 µM [inhibitor, partial curve, poor fit] | – |
| COc1ccc(CN(C)Cc2ccc(-c3ccccc3)cc2)cc1 | – | inconclusive: 63.1 µM [inhibitor, partial curve, poor fit] | – |
| Cc1ccc(C)c(Cn2c(-c3ccc(Cl)cc3)nc(C)c(CCO)c2=O)c1 | – | inconclusive: 2.82 µM [inhibitor, full curve, poor fit] | – |
| COCCn1ncc(N2CCCC(CC(=O)Nc3ccccc3OC)C2)cc1=O (configuration not stated) | – | inconclusive: 70.8 µM [inhibitor, partial curve, poor fit] | – |
| COc1ccc2[nH]c3c(c2c1)CCNC31CCN(C(=O)c2ccsc2)CC1 | – | inconclusive: 25.1 µM [inhibitor, full curve] | – |
| CCCc1nnc(C[C@@H]2C[C@@H](C(C)C)[C@H](CN3CCC[C@H]3CO)C=C2C)o1 | – | active: 50.1 µM | – |
| COc1ccc(-n2c(=O)c(C(=O)NCCCc3ccccc3)nc3cccnc32)cc1 | inactive: -8.62% | – | – |
| CC(C)(C)C(=O)N1CCc2nc(-c3ccc(Cl)cc3)nc(-c3ccccc3)c2C1 | – | inconclusive: 50.1 µM [inhibitor, partial curve, poor fit] | – |
| CCOc1ccccc1C(=O)NC1CCN(c2cc(C(F)(F)F)nc(C)n2)CC1 | – | inconclusive: 31.6 µM [inhibitor, partial curve] | – |
| O=c1[nH]c(C2CCCN(Cc3cccs3)C2)nc2ccc(F)cc12 (configuration not stated) | – | inconclusive: 44.7 µM [inhibitor, partial curve, poor fit] | – |
| CCC(C)NC(=O)N1CC(Oc2ccccc2-c2nc(-c3ccccc3)no2)C1 (configuration not stated) | – | active: 35.5 µM | – |
| NC(=O)Cc1c[nH]c2ncc(-c3cccc(N4CCOCC4)c3)cc12 | – | active: 100 µM | – |
| CCc1nc2c(c(-c3ccc(O)cc3)n1)CN(Cc1ccc(OC)cc1)CC2 | inactive: -21.9% | – | – |

| SMILES | activity change, negative = cytotoxicity | Potency | outcome |
| --- | --- | --- | --- |
| COc1ccc(C(=O)N2CCC3(CC2)CCN(Cc2cccs2)c2ccccc2O3)cc1 | – | inconclusive: 44.7 µM [inhibitor, partial curve, poor fit] | – |
| COc1ccc(C(=O)N2CCN(C(=O)c3nnn4c3COC(c3ccc(F)cc3)C4)CC2)cc1 (configuration not stated) | – | inconclusive: 11.2 µM [inhibitor, full curve, poor fit] | – |
| CCn1c2c(c(=O)n1Cc1ccccc1)CCN(C(=O)COc1ccccc1)C2 | – | active: 50.1 µM | – |
| CN(C)[S+](=O)([O-])c1ccc2c(c1)OCCN(Cc1ccc(Cl)cn1)C2 | – | inconclusive: 35.5 µM [inhibitor, partial curve, poor fit] | – |
| CN1c2cc(C(=O)Nc3ccc(Oc4ccccc4)cc3)ccc2C(=O)N2CCCCCC21 (configuration not stated) | – | inconclusive: 28.2 µM [inhibitor, full curve] | – |
| COc1ccccc1-c1nc(-c2c(C)noc2C)cc2[nH]c(C)cc12 | – | active: 25.1 µM | – |
| COc1ccccc1-c1cc(C(=O)NC2CCC2)c2cnn(C)c2n1 | – | inconclusive: 63.1 µM [inhibitor, partial curve, poor fit] | – |
| O=C([C@@H]1C[C@H](Oc2cccnc2)CN1C(=O)Cc1cccc(F)c1)N1CCOCC1 | – | inconclusive: 79.4 µM [inhibitor, single point] | – |
| O=C(COc1ccccc1)N1CC(Oc2ccc(-c3noc(C4CCOCC4)n3)cc2)C1 | inactive: -29.7% | – | – |
| O=C(Cc1c[nH]c2ccccc12)N1CCC(c2nc(CCOCC3CCCC3)no2)C1 (configuration not stated) | – | inconclusive: 50.1 µM [inhibitor, partial curve, poor fit] | – |
| O=C(c1ccc(CNc2nccc(-c3cccnc3)n2)cc1)N1CCCCC1 | – | active: 50.1 µM | – |
| COc1cccc(CC(=O)N2CC(c3noc(C4CCCN4C)n3)C2)c1 (configuration not stated) | inactive: -10.2% | – | – |
| Clc1ccc(CN2CCC[C@H]2c2nc(-c3ccc(N4CCOCC4)nc3)no2)cc1 | – | inconclusive: 70.8 µM [inhibitor, partial curve] | – |
| O[C@@H]1C[C@@H](c2nnc3n2CCN(Cc2ccccc2)C3)N(Cc2cccnc2)C1 | inactive: -15.6% | – | – |
| Cc1noc2c(NCCN(C)C)cc(-c3ccccn3)nc12 | – | inconclusive: 28.2 µM [inhibitor, full curve, poor fit] | – |
| OCC1(CCCc2ccccc2)CCN(Cc2cccc3c2OCO3)CC1 | – | inconclusive: 56.2 µM [inhibitor, partial curve, poor fit] | – |
| N#Cc1ccc(C(=O)Nc2ccc3c(N4CCCCC4)ncnc3c2)cc1 | inactive: -11.7% | – | – |
| Cc1cccc(OCC(=O)N2CCC(c3n[nH]c(=O)n3Cc3ccc(F)cc3)CC2)c1 | – | active: 20 µM | – |
| CNC(=O)N1CCC(C2CCN(S(=O)(=O)c3cc(F)ccc3C)C2)CC1 (configuration not stated) | – | inconclusive: 35.5 µM [inhibitor, partial curve] | – |
| Cc1cnc(-c2ccccc2)n1C1CCN(C(=O)CC2CCCCC2)C1 (configuration not stated) | – | inconclusive: 70.8 µM [inhibitor, single point] | – |
| COc1cc(CNC2CCCCCCC2)ccc1OCC(O)CN1CCSCC1 (configuration not stated) | – | active: 79.4 µM | – |

| SMILES | activity change, negative = cytotoxicity | Potency | outcome |
| --- | --- | --- | --- |
| CN1CCCC2(C1)CN(C)c1ccc(C(=O)Nc3ccccc3)cc12 (configuration not stated) | – | inconclusive: 89.1 µM [inhibitor, partial curve, poor fit] | – |
| CNC(=O)c1cc(C2CC2)nc2onc(C3CCCN(C(C)=O)C3)c12 (configuration not stated) | inactive: 3.04% [at 138 µM] | – | – |
| C#CCNC(=O)C1=NOC2CN(C(=O)NC(C)C)CC12 (configuration not stated) | – | – | inactive [at 138 µM] |
| COc1ccc(C(=O)N[C@H]2C[C@@H](c3nc(-c4ccncc4)no3)N(C)C2)cc1 | – | – | inactive [at 174 µM] |
| CN(C)c1cccc(NC(=O)C2=NO[C@@H]3CN(c4cccnc4)C[C@H]23)c1 | – | inconclusive: 50.1 µM [inhibitor, partial curve, poor fit] | – |
| CN(Cc1cccnc1)c1ccc2ncc(Nc3cc(F)cc(N4CCOCC4)c3)n2n1 | – | active: 28.2 µM | – |
| CCC(C)NC(=O)C(NC(=O)c1ccccc1Cl)C1CCN(C(=O)c2cccc(OC)c2)CC1 (configuration not stated) | – | inconclusive: 50.1 µM [inhibitor, partial curve, poor fit] | – |
| CCS(=O)(=O)Nc1ccc(C)n(CC(=O)NCc2cc(F)ccc2F)c1=O | inactive: -5.6% | – | – |
| Cc1ccc(CN(C(=O)c2ccco2)c2ccc(CC(=O)NCc3ccccc3)cc2)cc1 | – | inconclusive: 44.7 µM [inhibitor, partial curve, poor fit] | – |
| CCn1cnnc1-c1nn(C)c2c1CN(C(=O)CCCC1C(=O)Nc3ccccc31)CC2 (configuration not stated) | – | – | inactive |
| COc1cccc(C(=O)NC2CCN(c3cn[nH]c(=O)c3)CC2)c1 | inactive: -6.2% | – | – |
| COc1ccc(-c2ccccc2C(=O)N(C(C)C)C(C)C)c2cccnc12 | – | inconclusive: 79.4 µM [inhibitor, partial curve, poor fit] | – |
| CCNC(=O)c1coc(COc2ccc3c(c2)C(c2cccc(F)c2)N(C(=O)C(C)C)CC3)n1 (configuration not stated) | – | inconclusive: 44.7 µM [inhibitor, partial curve, poor fit] | – |
| Cn1cc(CN2C[C@@H](F)[C@@H](OCc3nc4ccc(C(F)(F)F)cc4[nH]3)C2)cn1 | – | inconclusive: 50.1 µM [inhibitor, partial curve] | – |
| COc1cccc(C(=O)N2CC(Oc3cccc(-c4nc(-c5ccccc5)no4)c3)C2)c1 | – | inconclusive: 22.4 µM [inhibitor, full curve, poor fit] | – |
| CN1CCC2(C1)CN(Cc1ccccc1)c1ccc(C(=O)NCCOc3ccccc3)cc12 (configuration not stated) | – | inconclusive: 22.4 µM [inhibitor, full curve, poor fit] | – |
| CCOc1ccc(NC(=O)Cn2cccc2-c2nc(-c3ccccc3)no2)cc1 | – | inconclusive: 50.1 µM [inhibitor, partial curve, poor fit] | – |
| COc1ccc(C(=O)NC2CCN(c3cc(-c4ccccc4)[nH]n3)C2)cc1F (configuration not stated) | – | inconclusive: 44.7 µM [inhibitor, partial curve, poor fit] | – |
| O=C(Nc1ccc([C@H]2OCC(=O)N(Cc3ccc(F)cc3)[C@@H]2CO)cc1)c1ccco1 | – | inconclusive: 89.1 µM [inhibitor, partial curve, poor fit] | – |
| COc1ccc2[nH]c(C(=O)NCC(=O)N3CCCCCNC(=O)CC3c3ccccc3)cc2c1 (configuration not stated) | inactive: -9.18% | – | – |
